Data reported in PubChem BioAssay AID488969 (Vanderbilt High Throughput Screening Facility, 2010).
Whole data set: some 110,000 compounds, median “z-score” near -0.1, cut for the highest 2% near 2. The list shows a part of the results. Calls of active or inactive are those of the source.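 Rule for the calls: active = z-score in the third read window above 3 or below -3; inactive = the rest.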

Target: Metabotropic glutamate receptor 8 (Rattus norvegicus) (UniProt P70579)
Assay: rat mGluR8 modulators via GIRK flux, primary screen, cell-based, thallium flux, HTS (AID 488969)
Settings: HEK293 rat mGluR8, GIRK (G protein-gated inwardly rectifying potassium channel) thallium flux, FluoZin2; at 10 µM; stronger effect = higher value; submaximal glutamate (EC20) added with thallium

Chain of UniProt P70579 (P70579 whole entry, looked up): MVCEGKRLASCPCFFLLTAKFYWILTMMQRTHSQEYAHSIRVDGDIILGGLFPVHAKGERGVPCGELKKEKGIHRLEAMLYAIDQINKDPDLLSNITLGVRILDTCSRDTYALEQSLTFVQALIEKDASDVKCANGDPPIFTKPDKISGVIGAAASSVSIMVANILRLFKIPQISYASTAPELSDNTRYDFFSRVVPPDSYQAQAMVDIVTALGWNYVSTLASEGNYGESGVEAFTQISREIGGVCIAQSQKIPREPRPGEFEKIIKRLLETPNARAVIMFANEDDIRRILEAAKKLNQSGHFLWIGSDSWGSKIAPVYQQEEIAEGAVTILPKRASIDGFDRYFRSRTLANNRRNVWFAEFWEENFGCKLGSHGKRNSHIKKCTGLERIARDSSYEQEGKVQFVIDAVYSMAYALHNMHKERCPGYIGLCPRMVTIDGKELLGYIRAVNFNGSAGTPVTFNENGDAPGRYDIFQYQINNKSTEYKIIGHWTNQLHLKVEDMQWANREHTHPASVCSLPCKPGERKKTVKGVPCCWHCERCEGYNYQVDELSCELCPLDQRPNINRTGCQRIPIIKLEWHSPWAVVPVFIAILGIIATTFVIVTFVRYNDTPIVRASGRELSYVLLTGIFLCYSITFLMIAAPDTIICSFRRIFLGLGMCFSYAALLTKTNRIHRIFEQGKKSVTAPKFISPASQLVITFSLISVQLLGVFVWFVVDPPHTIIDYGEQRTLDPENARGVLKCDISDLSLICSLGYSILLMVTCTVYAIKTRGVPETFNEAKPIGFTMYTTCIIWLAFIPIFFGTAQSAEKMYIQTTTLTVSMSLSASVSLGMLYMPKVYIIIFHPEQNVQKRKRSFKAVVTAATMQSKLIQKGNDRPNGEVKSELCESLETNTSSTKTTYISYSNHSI

Compound | z-score
C/C(=N\O)C(C)NC(=O)c1ccccc1 (stereo not given) | active: 3.54
CS(=O)(=O)N1CCN(C(=O)c2ccc(Br)s2)CC1 | 0.161
COc1ccc2nc(SCc3cnc(C)nc3N)[nH]c2c1 | 0.0366
COCc1nnc(NC(=O)CC(c2ccccc2)c2ccccc2)s1 | 0.479
COCCNC(=O)CSc1nc2ccccc2c2nc(C)nn12 | 0.864
COC(=O)c1oc2ccccc2c1N | -0.146
Cc1cc(NS(=O)(=O)c2ccc(NC(=O)CCCOc3ccccc3)cc2)no1 | -0.435
CC(=O)NC1(C(F)(F)F)C(=O)Nc2c1c(=O)[nH]c(=O)n2Cc1ccco1 (stereo not given) | -0.0113
N#Cc1ccc2ccn(CC(=O)NCc3ccccc3)c2c1 | 0.232
COCCNC(=O)C(c1cccs1)N(C(=O)Cn1nnc2ccccc21)c1ccccc1 (stereo not given) | -0.0261
NC1=NC(=O)C(Cc2cccc(Cl)c2Cl)S1 (stereo not given) | -0.0419
CC(C)OC(=O)n1c(=S)oc2ccccc21 | -0.00387
O=C(COC(=O)CSc1nnc(-c2ccc(Cl)cc2)o1)Nc1cc(Cl)cc(Cl)c1 | -0.26
O=C(NCc1ccc2c(c1)OCO2)C1CCCN1C(=O)Nc1ccc(F)cc1 (stereo not given) | -0.232
O=C(Nc1nnc(COc2ccccc2)s1)C1CCN(S(=O)(=O)c2ccc(Cl)cc2)CC1 | -0.122
CN1CCN(c2nc3c(c(=O)[nH]c(=O)n3C)n2Cc2cccc3ccccc23)CC1 | -0.0665
COc1ccc(C2=C(CN(C)C)C(c3ccccc3)c3ccccc3O2)cc1 (stereo not given) | -0.52
COc1ccc(/C=N/Nc2ncc(-c3ccccc3)cn2)c(OC)c1 | -0.0479
CC(C)[C@H](NC(=O)c1cccc(S(=O)(=O)N2CCOCC2)c1)C(=O)Nc1nc2ccccc2s1 | 0.522
COc1ccc2c(c1OC)C(=O)N(c1cccc(C)c1)C2 | 0.217
COc1ccccc1OCc1nc(Cc2ccc(Cl)cc2)no1 | -0.142
Cc1ccc(CCNC(=O)c2ccc(CS(=O)(=O)Cc3ccccc3F)o2)cc1 | -0.498
COc1cc(C(=O)NCC2CCCO2)ccc1OCc1c(C)noc1C (stereo not given) | 0.415
COc1ccc(S(=O)(=O)N2CCN(Cc3cccc(Cl)c3)CC2)cc1 | 0.0411

Compound | z-score
Cc1cccc(Oc2ncnc(N)c2[N+](=O)[O-])c1 | -0.239
CCC1(C(=O)c2ccccc2)C(c2cccc([N+](=O)[O-])c2)C1(C(=O)OC)C(=O)OC (stereo not given) | -0.189
CNC(=O)c1sccc1S(=O)(=O)Cc1c(Cl)cccc1Cl | 0.11
O=C(Cn1nc(-c2ccc(Cl)cc2)ccc1=O)NCc1ccc2c(c1)OCO2 | 1.01
S=c1[nH]nc(-c2ccncc2)n1Cc1ccco1 | -0.198
COc1cc(/C=N\NC(=O)CNC(=O)c2cccc([N+](=O)[O-])c2)ccc1O | 0.227
O=C1N=C(N2CCOCC2)S/C1=C\C=C/c1ccccc1 | -0.0848
O=C(c1ccccc1F)N(Cc1ccc2c(c1)OCO2)Cc1cc2cc3c(cc2n2nnnc12)OCO3 | -0.927
O=C(Cn1cnc2c(nnn2Cc2ccccc2F)c1=O)NCc1ccco1 | 0.156
COc1ccc(C(=O)OCC(=O)Nc2ccc(F)c(F)c2F)cc1OC | -0.106
O=C(NCC(=O)N1CCCC1C(=O)O)OC1CCCCC1 (stereo not given) | 0.537
O=C1NCCCc2nonc21 | -0.16
O=C(CN1CCN(CCN2C(=O)c3cccc4cccc(c34)C2=O)CC1)c1ccc(Cl)cc1 | -0.0452
COCCCNC(=O)CSC1=Nc2ccccc2C2=NC(CC(=O)NCc3ccccc3)C(=O)N12 (stereo not given) | 0.912
Cc1cc(/C=C(/C#N)C(=O)Nc2ccc(Cl)cc2)c(C)n1-c1cccnc1 | -0.136
CCc1c(C)nc2cc(-c3ccc(OC)c(OC)c3)nn2c1N1CCC(C)CC1 | -0.784
COCC(C)n1c(SCC(=O)NCCC2=CCCCC2)nc2ccccc2c1=O (stereo not given) | -0.372
CCOC(=O)c1cnc(SCC(=O)N2CCN(C(=O)c3ccco3)CC2)nc1N | -0.0653
Cc1ccsc1C(=O)Nc1ccc(F)c([N+](=O)[O-])c1 | 0.237
CC1=C(C)CC2C(=O)N(Cc3ccccc3)C(=O)C2C1 (stereo not given) | -0.0316
Cc1ccc(NC(=O)/C=C/c2cccs2)c([N+](=O)[O-])c1 | -0.147
CCOC(=O)C1CCCN(C(=O)Cn2cccc2C(=O)c2ccccc2)C1 (stereo not given) | -1.33
COCC(=O)Nc1cc(C(=O)NCC(C)C)ccc1Cl | 0.407
O=C(O)c1ccn(Cn2cnc3ccccc32)n1 | 0.63

Compound | z-score
O=c1c[n+]([O-])c2ccccc2n1OCc1ccccn1 | -0.45
O=C(N1CCOCC1)N1CCN(c2ccccn2)CC1 | 0.532
Fc1ccc(N/N=C/C=C/c2ccccc2)c(F)c1 | 0.312
CCN(CC)CCNC(=O)Cn1nc(-c2ccccc2)c2ccccc2c1=O | 0.617
CCCCC(=O)Nc1ccc(NC(=S)NC(=O)CC(C)C)cc1OC | -0.318
Cc1cccc(OCCC(=O)Nc2c(C)n(C)n(-c3ccccc3)c2=O)c1 | -0.253
Cc1ccc(-c2nn3c(C)nnc3s2)cc1NC(=O)c1cccnc1 | -1.54
CCN1CCN(Cc2nc3c(c(=O)[nH]c(=O)n3C)n2Cc2ccccc2Cl)CC1 | -0.0236
CCOc1ccc(CNc2ccc(N3CCOCC3)c(C(=O)O)c2)cc1 | 0.0248
CCOC(=O)C1CCN(C(=O)COc2ccc(S(=O)(=O)NC(C)(C)C)cc2)CC1 | -0.34
O=S(=O)(c1cccs1)N1CCN(CC(O)COc2cc(Cl)ccc2Cl)CC1 (stereo not given) | -1.86
CCn1cc(Cl)c(C(=O)Nc2nc3ccccc3n2CCN2CCCCC2)n1 | -0.53
Cn1cc([N+](=O)[O-])c(C(=O)Nc2ccn(Cc3c(F)c(F)cc(F)c3F)n2)n1 | -0.38
COc1ccc(OC)c(NC(=S)NCc2cccs2)c1 | -0.0175
CCCCCCCCCOC(=O)C(CC(=O)O)N1CCOCC1 (stereo not given) | 0.209
C/C(CC(=O)NCc1ccco1)=N\NC(=O)C(c1ccccc1)c1ccccc1 | -0.174
Cc1c(NC(=O)CSc2nnnn2-c2ccc(O)cc2)c(=O)n(-c2ccccc2)n1C | -0.109
CC1(C)CCN(Cc2ccccc2)C1CC#N (stereo not given) | 0.531
CCCC(=O)Nc1ccc(C(=O)/C=C/c2ccc(SC)cc2)cc1 | -0.272
Cc1cccc(-n2cnc(C(=O)N/N=C/c3ccccc3)c2)n1 | -0.311
COc1ccccc1NS(=O)(=O)c1cc(NC(=O)c2cc3ccccc3oc2=O)ccc1C | -0.257
C=C(C)CNC(=S)N/N=C/C1=CCC2CC1C2(C)C (stereo not given) | 0.611
